Test results: PubChem BioAssay AID686978 (National Center for Advancing Translational Sciences (NCATS), 2013)
Where “and” joins values, the source holds several entries; their conditions need not be identical. Equal values may be shown once. The campaign covered roughly 420,000 compounds. About 64,000 (15%) were called active. The inconclusive results got no clear call from the source; some entries with a clear call stand among them for comparison. The call rests on the fitted dose curve; in most records, active means well fitted inhibition curve with a large enough effect; inconclusive means small, poorly fitted or top-dose-only effect; inactive means flat fitted curve, though single readings scatter. Potencies beside an inconclusive call are fits to weak or partial responses and may not hold up.

Test: qHTS for Inhibitors of human tyrosyl-DNA phosphodiesterase 1 (TDP1): qHTS in cells in absence of CPT; further: nearly all actives have a fitted effect of over 55% in size
Conditions: DT40 Tdp1-/- hTDP1 cells, no CPT, ATP luminescence, 48 h; activity change, negative = growth inhibition: at 46.2 µM (top of the series) unless noted
In short: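 DT40 Tdp1-/-;hTDP1 cells, no CPT (DMSO vehicle only), 400 cells/well; compounds pin-transferred; ≥48 hr, 37 °C; CellTiter-Glo 30 min RT dark, luminescence read.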
On the % scale 0 is the no-effect control and ±100 the full control effect; potency means the concentration at half of the fitted maximal effect; tags describe the fitted curve by direction and shape.

| Structure (SMILES) | Potency | activity change, negative = growth inhibition |
| --- | --- | --- |
| O=C(Nc1ccc(Br)cc1)C1CCN(c2cnccn2)CC1 | inactive and inconclusive: 20.6 µM [inhibitor, partial curve] | – |
| COc1ccc(CNC(=O)CCCCCNC(=O)N2CCn3c2nc2ccccc23)cc1 | inconclusive: 29.1 µM [inhibitor, single point] | – |
| CCOC(=O)C1CCN(C(=O)c2ccc(S(=O)(=O)Nc3ccccc3OC)cc2)CC1 | inconclusive: 14.6 µM [inhibitor, partial curve] | – |
| Cc1cc2nc(C3CCCCC3)c(Cc3cccc(F)c3)n2c(C)c1Br | inconclusive: 16.4 µM [inhibitor, single point] | – |
| COC(=O)c1c(-c2cccc(C)c2)csc1NC(=O)C1CCCO1 (configuration not stated) | active: 18.4 µM | – |
| COc1ccc(OCCCN2CCCCCC2)cc1 | inconclusive: 20.6 µM [inhibitor, partial curve] | – |
| CC12CC3(C)CC(C)(C1)CC(NC(=O)N1CCCC1)(C2)C3 | active: 12.6 µM | – |
| CC(=O)N1CCn2c3c(c(=O)c4cc(C)ccc42)CCC31 (configuration not stated) | – | inconclusive: -30.4% [inhibitor] |
| Cc1ccc(-n2nc3c(c2NC(=O)c2ccc4c(c2)OCO4)CS(=O)(=O)C3)cc1C | inactive | – |
| CCN(CC)S(=O)(=O)c1nnc(NC(=O)COc2ccccc2Cl)s1 | inconclusive: 29.1 µM [inhibitor, single point] | – |
| OC(COc1ccc2ccccc2c1)CN1CCOCC1 (configuration not stated) | inactive | – |
| CCc1nn(CC(=O)NCCCN2CCc3ccccc3C2)c(=O)c2cc3sccc3n12 | inconclusive: 16.4 µM [inhibitor, single point] | – |
| COCCNC(=O)COC(=O)c1cccnc1SC | inactive | – |
| COC(=O)c1ccc(NC(=O)CN2C(=O)C3C4C=CC(C4)C3C2=O)cc1 (configuration not stated) | inactive | – |
| CCOC(=O)c1cc2oc(C(c3nnnn3C3CCCCC3)N3CCOCC3)cc2[nH]1 (configuration not stated) | inconclusive: 29.1 µM [inhibitor, single point] | – |
| Nc1nonc1-n1nnc(C(=O)N/N=C/c2cccc(Cl)c2)c1CSc1ccccc1 | inactive | – |
| CC(C)/C=C/C(=O)N1CCC(N2CCC(C(=O)NCC3CCCO3)CC2)CC1 (configuration not stated) | inactive | – |
| COCCNC(=O)CSc1ccc(Cl)cc1 | inactive | – |
| COc1ccc(OCC(=O)Nc2c(Cl)ccc3nsnc23)cc1 | inconclusive: 29.1 µM [inhibitor, single point] | – |
| Cc1cccc(-n2c(SCC(=O)N3CC(=O)Nc4ccccc43)nc3ccccc3c2=O)c1C | active: 18.4 µM | – |
| O=C(O)C1CCCCC1C(=O)Nc1ccc(S(=O)(=O)N2CCOCC2)cc1 (configuration not stated) | inactive | – |
| N#Cc1c(-c2cccs2)nc(SCC(=O)c2ccc(Br)cc2)[nH]c1=O | inactive | – |
